Source: PubChem BioAssay AID652104 (National Center for Advancing Translational Sciences (NCATS), 2013)
Where “and” joins values, the source holds several entries; their conditions need not be identical. Equal entries are not always repeated. Screen size: about 410,000 compounds; about 7,200 (1.8%) were called active. Inconclusive means that the source gave no clear call. Such entries were picked first, then a sample of the others. Calls come from the whole dose curve; as a rule, active = well fitted activation curve with a large enough effect; inconclusive = small, poorly fitted or top-dose-only effect, or another doubt; inactive = no such curve, though single readings can be large or run the other way. No potency is given beside an inconclusive call; the fits are too rough. More than one record can exist for a structure, and the calls need not agree.

assay: qHTS of TDP-43 Inhibitors; details: TDP-43 expressing yeast growth rescue, BacTiter-Glo, 24 h; growth rescue (activation): at 46.1 µM (top of the series) unless noted; note: nearly all actives have a fitted effect of over 50% in size; for growth rescue (activation): % of control where 0% means no effect
Method in brief: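 Cell-based yeast growth screen: TDP-43 expression induced in galactose, inoculum OD600=0.02 after raffinose pregrowth to mid-log. Read-out BacTiter-Glo luminescence at 24 hr, 30 deg C; inhibition of toxicity seen as signal increase.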
Potency is the fitted concentration of half-maximal effect; tags give direction and shape of the fitted curve.

Row | SMILES | Potency | growth rescue (activation)
1 | CCOc1ncccc1C(=O)OCc1nnc(-c2ccccc2)o1 | inconclusive [activator, single point] | –
2 | COc1cc(SC)ccc1C(=O)N1CCc2ccccc21 | inconclusive [activator, single point] | –
3 | FC(F)(F)c1ccc2c3n(nc2c1)CCN=C3c1ccc(Cl)cc1 | inconclusive [activator, partial curve] | –
4 | O=C(O)CCCN1C(=O)/C(=C\c2ccco2)SC1=S | inconclusive [activator, single point] | –
5 | Cc1cccc(NC(=O)CC2SC(=O)N(c3ccccc3)C2=O)c1 (stereo not given) | – | inactive: 26.4%
6 | COc1ccc(/C=C/C(=O)N2CCCc3ccccc32)c(OC)c1 | inconclusive [activator, single point] | –
7 | O=[N+]([O-])c1ccc(Sc2nccn2Cc2ccccc2)c([N+](=O)[O-])c1 | active: 14.1 µM | –
8 | CCO[C@H]1OC(C(=O)Nc2ccccc2)=C[C@@H](c2ccc(Br)cc2)[C@@H]1CCCO | inconclusive [activator, single point] | –
9 | CC1Nc2ncnc(N3CCc4ccccc4C3)c2N(Cc2ccc(Br)cc2)C1=O (stereo not given) | active: 11.2 µM | –
10 | COc1ccc(OCc2nnnn2-c2ccccc2)cc1 | – | inactive: 7.2%
11 | CCOC(=O)Cc1csc(NC(=O)c2ccc3c(c2)OCO3)n1 | inconclusive [activator, partial curve] | –
12 | CCc1ccc(C(=O)c2cn(CC(=O)Nc3cc(OC)ccc3OC)c3nc(C)ccc3c2=O)cc1 | – | inactive: -26.3%
13 | Cc1c(CCNC(=O)c2ccc(Br)o2)sc2nc(-c3ccc(Cl)cc3)nn12 | inconclusive [activator, single point] | –
14 | Cc1ccc(C(=O)N2CCCCC2)cc1NC(=O)c1nsc2ccccc12 | inconclusive [activator, single point] | –
15 | CC(=O)c1c(C)[nH]c(C(=O)OCc2ccccc2F)c1C | inconclusive [activator, single point] | –
16 | O=C(N/N=C/c1ccc([N+](=O)[O-])s1)C(O)c1ccccc1 (stereo not given) | inconclusive [activator, partial curve] | –
17 | COc1cccc(NC(=O)CN(C)C(=O)c2cccc(S(=O)(=O)N3c4ccccc4CC3C)c2)c1 (stereo not given) | – | inactive: 20.2%
18 | O=C1NCCC12C(=O)Nc1ccccc12 (stereo not given) | inconclusive [activator, full curve, poor fit] | –
19 | COc1cccc(NC(=O)c2oc3ccccc3c2NC(=O)c2ccc(F)c(F)c2)c1 | – | inactive: 11.8%
20 | CC(=O)Sc1nc(-c2ccccc2)[nH]c1S(=O)(=O)c1ccc(C)cc1 | inconclusive [activator, partial curve] | –
21 | N#CC1=C(N)Oc2cc(N)ccc2C1C1CC=CCC1 (stereo not given) | – | inconclusive: 28.5% [activator]
22 | C=C(C(=O)c1ccccc1)C(C)C(=C)C(=O)c1ccccc1 | inconclusive [activator, partial curve] | –
23 | O=C1c2ccccc2C(=O)C1c1ccc2ccccc2n1 | inconclusive [activator, partial curve, poor fit] | –
24 | CCOC(=O)c1sc(=S)n(C)c1NC(=O)c1ccccc1Cl | inconclusive [activator, single point] | –

Row | SMILES | Potency | growth rescue (activation)
25 | O=C(/C=C/c1ccccc1)N/C(=C/c1ccccc1)C(=O)Nc1ccc(C(=O)O)cc1 | inconclusive [activator, single point] | –
26 | CCc1ccc(N2C(=O)CN(Cc3cccs3)C2=S)cc1 | inconclusive [activator, partial curve] | –
27 | Cc1ccc(N/C(C(Cl)=C(Cl)Cl)=C(/Cl)[N+](=O)[O-])c(C)c1 | active: 12.6 µM | –
28 | S=C(N/N=C/c1ccc(Br)cc1)N1CCCCC1 | inconclusive [activator, single point] | –
29 | O=[N+]([O-])c1cc(S(=O)(=O)NC2=NCCCCC2)ccc1NCC1CCCCC1 | inconclusive [activator, partial curve] | –
30 | COc1ccccc1C1CCN(c2ccc(CO)cc2[N+](=O)[O-])CC1 | inconclusive [activator, single point] | –
31 | CCOC(=O)C1CCN(C(=O)c2nn(-c3ccc(OC)c(Cl)c3)c(=O)c3c2c2ccccc2n3C)CC1 | – | inactive: 27.1%
32 | COc1ccc(/C=C2\COc3ccccc3C2=O)c(OC)c1 | inconclusive [activator, single point] | –
33 | Cc1ccc(S(=O)(=O)CC(=O)N2CCN(c3ccc(F)cc3)CC2)cc1 | inconclusive [activator, single point] | –
34 | CCn1c(=O)n(-c2ccc3c(c2)OCO3)c2nc(-c3ccc(C(C)C)cc3)nc(C(N)=O)c21 | – | inactive: -17.5%
35 | O=C(Nc1cccc(Cl)c1)C1CCCN(c2nn3cc(-c4ccc(F)cc4)nc3s2)C1 (stereo not given) | inconclusive [activator, partial curve] | –
36 | CCOC(=O)c1ccc2c(c1)nc(SCC(=O)c1cc3ccccc3o1)n2CC | – | inconclusive: 23.6% [activator]
37 | O=C(NCC(c1cccnc1)N1CCN(c2ccccc2F)CC1)C(=O)Nc1ccc(F)cc1F (stereo not given) | – | inactive: 23%
38 | CC(=O)Nc1ccc2c(c1)Cc1cc(N3C(=O)C=CC3=O)ccc1-2 | – | inconclusive: -93.8% [activator]
39 | COc1ccc(-c2nc3ccc(Br)cn3c2Cc2ccc(C)cc2)cc1OC | active: 15.8 µM | –
40 | CCOC(=O)N1CCN(C(=O)CSCc2ccc(Cl)cc2)CC1 | inconclusive [activator, partial curve] | –
41 | CCOC(=O)c1cnc(SSc2ncc(C(=O)OCC)c(N)n2)nc1N | inconclusive [activator, partial curve] | –
42 | CC1CCCC(NC(=O)COC(=O)CCC(=O)c2cccs2)C1C (stereo not given) | inconclusive [activator, partial curve] | –
43 | Cc1ccccc1OCc1nc2c3cnn(-c4cccc(F)c4)c3ncn2n1 | – | inactive: 23.5%
44 | CCn1nc(NC(=O)C2CCCO2)c2cc3cc(C)ccc3nc21 (stereo not given) | inconclusive [activator, single point] | –
45 | Cc1ccc(C(=O)Nc2cccnc2Cl)cc1Cl | inconclusive [activator, single point] | –
46 | Cc1cc(C)n(-c2ccc(C(=O)N3CCN(S(=O)(=O)c4ccc(Br)cc4Cl)CC3)cc2)n1 | inconclusive [activator, single point] | –
47 | COCC(=O)Nc1nc(-c2ccc(C)cc2)c(C)s1 | inconclusive [activator, partial curve] | –
48 | COc1cccc(C(=O)Nc2cc3c(cc2C(C)=O)OCCO3)c1 | inconclusive [activator, partial curve] | –

Row | SMILES | Potency | growth rescue (activation)
49 | CCC[C@@H](CN1CCC[C@H]1CN1C(N)=NC[C@@H]1Cc1ccccc1)N1C[C@@H]([C@H](C)CC)N(CCCC2CCCC2)C1=N | inconclusive [activator, single point] | –
50 | CCOc1c(Cl)cc(/C=N/NC(N)=S)cc1OC | inconclusive [activator, single point] | –
51 | CC1CCCCN1CCCNC(=O)c1cc(Sc2cccc(Cl)c2)nc2ccccc12 (stereo not given) | – | inactive: 24.5%
52 | CC1(C)N=C(SCc2ccc(F)cc2)c2ccccc2N1 | active: 11.2 µM | –
53 | CCCCNC(=O)CN1C(=O)c2cccnc2Sc2ccccc21 | – | inactive: -20.1%
54 | CC(C)c1ccc(Nc2nnc(SCC(=O)c3nnc(-c4ccccc4)o3)s2)cc1 | active: 20 µM | –
55 | O=C(/C=C/c1cccc(Cl)c1)NCc1cccs1 | active: 17.8 µM | –
56 | NC(=NCCCCCCN=C(N)/N=C(\N)Nc1ccc(Cl)cc1)/N=C(\N)Nc1ccc(Cl)cc1 | inactive and active: 25.1 µM | –
57 | CC(=O)N1c2ccc(S(=O)(=O)NCc3ccccc3Cl)cc2CC1C (stereo not given) | inconclusive [activator, partial curve] | –
58 | COc1ccc(N2CCN(C(=O)C3CCCN(C(=O)c4cc5sccc5n4C)C3)CC2)cc1 (stereo not given) | – | inactive: 9.85%
59 | CC1=Nc2ccccc2N=C(N)C1c1ccccc1 (stereo not given) | – | inactive: 1.85%
60 | Cc1cccc(N(O)C(=O)Nc2cccc(Cl)c2)c1 | inconclusive [activator, single point] | –
61 | Cc1ccc(CNC(=O)CN(C)C2=NS(=O)(=O)c3ccccc32)cc1 | inconclusive [activator, full curve, poor fit] | –
62 | Cc1ccc(C)c(N2CCN(C(=O)c3cc4c(C)nc5ccccc5c4o3)CC2)c1 | inconclusive [activator, partial curve] | –
63 | COc1ccc(-c2oc3ccccc3c(=O)c2OC(C)=O)cc1 | inconclusive [activator, single point] | –
64 | Cc1cc(C)c(C(=O)NCC2CCCO2)c(C)c1C(=O)NCC1CCCO1 (stereo not given) | inconclusive [activator, single point] | –
65 | COc1ccc(-c2csc(C(O)c3cccc(OC)c3)n2)cc1 (stereo not given) | active: 20 µM | –
66 | CCc1sc(C(=O)Nc2nc(C)cs2)cc1C | active: 20 µM | –
67 | CC(C)(C)C(=O)OCc1nc(-c2ccc(O)c(O)c2)cs1 | inconclusive [activator, single point] | –
68 | Cc1ccc(Nc2nc(-c3ccc(C)cc3)c(CC(=O)O)s2)cc1 | inconclusive [activator, partial curve] | –
69 | CCOC(=O)c1c(C)n(C)c2ccc(OCC(O)CN3CCCCCC3)cc12 (stereo not given) | – | inactive: -12.9%
70 | CC(=O)CCSc1ncnc2sc(-c3ccccc3)cc12 | inconclusive [activator, partial curve] | –
